Assay results reported in patent US20200148733A1 (Pieris, published 2020).
Several values for one entry are separate records, joined by “and”; a condition that tells them apart may be missing. Identical values can stand only once.

Assays:
[1] = target: T1, human IL-17A (human, UniProt Q16552 24-155); experiment: affinity ELISA (FIG. 9), ligand coated, mutein titrated
T1 construct: also called hIL-17A; IL-17 A/A
Procedure: (§1) After washing, 20 μl fluorogenic HRP substrate (Quantablue, Pierce) was added to each well, and the reaction allowed to proceed for 30 minutes. The fluorescence intensity of every well on the plate was read using a Genios Plus Microplate reader (Tecan).

[2] = target: T2, human IL-17 A/F heterodimer (human, UniProt Q16552 24-155; Q96PD4 31-163); experiment: as above
T2 construct: Heterodimer of IL-17A and IL-17F; also called hIL-17 A/F; hIL-17 AF
Procedure: as §1

[3] = target: T3, human IL-6 (human, UniProt P05231 30-212); experiment: affinity ELISA, ligand coated at 5 µg/mL, mutein titrated
T3 construct: Negative control ligand; also called hIL-6
Procedure: as §1

[4] = target: T1, human IL-17A; experiment: SPR in analogy to Example 1 (IL-17A on CM5 chip, mutein in solution)
T1 sequence (Q16552 24-155 limits assumed): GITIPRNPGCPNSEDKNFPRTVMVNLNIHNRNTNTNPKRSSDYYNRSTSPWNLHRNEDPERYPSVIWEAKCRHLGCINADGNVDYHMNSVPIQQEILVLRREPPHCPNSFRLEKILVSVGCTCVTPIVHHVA

[5] = target: T1, human IL-17A; experiment: affinity ELISA: ligand coated at 5 µg/mL, mutein titrated, HRP anti-lipocalin antibody detection
Procedure: as §1

[6] = target: T2, human IL-17 A/F heterodimer; experiment: as above
T2 sequence (Q16552 24-155 limits assumed, one chain of several): as the sequence (Q16552 24-155 limits assumed) above
Procedure: as §1

[7] = target: T4, cynomolgus monkey IL-17A (cynomolgus monkey, UniProt A0A2K5TTB0 24-155); experiment: as above
T4 construct: also called cIL-17A; cIL-17-A
T4 sequence (A0A2K5TTB0 entry or part of it): as the sequence (Q16552 24-155 limits assumed) above, with T3A, P8S, N34S, I77V, N78K, P104R counted along it
Procedure: as §1

[8] = target: T1, human IL-17A; experiment: SPR in analogy to Example 1, hIL-17A immobilized, mutein injected, fit 1:1 Binding
[9] = target: T5, human IL-17F (human, UniProt Q96PD4 31-163); experiment: Affinity ELISA: ligand coated at 5 ug/mL, mutein titrated, HRP-conjugated anti-lipocalin antibody, fluorescence
T5 construct: also called hIL-17F; hIL-17-F
T5 sequence (looked up): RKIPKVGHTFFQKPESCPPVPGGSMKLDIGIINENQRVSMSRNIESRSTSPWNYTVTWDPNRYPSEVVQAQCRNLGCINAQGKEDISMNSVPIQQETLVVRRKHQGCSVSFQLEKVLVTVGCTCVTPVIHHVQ
Procedure: as §1

[10] = target: T6, mouse IL-17A (mouse, UniProt Q62386 26-158, limits assumed); experiment: as above
T6 construct: also called mIL-17A
T6 sequence (looked up): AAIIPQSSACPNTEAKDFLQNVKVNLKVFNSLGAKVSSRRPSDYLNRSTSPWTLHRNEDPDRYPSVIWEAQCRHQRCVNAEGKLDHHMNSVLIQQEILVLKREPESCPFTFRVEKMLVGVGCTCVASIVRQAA
Procedure: as §1

[11] = target: T1, human IL-17A; experiment: competition ELISA (fluorescence): 0.2 nM hIL-17A pre-incubated with varied mutein, free hIL-17A captured on hIL-17RA-Fc (competitor)
Procedure: After washing, 20 μl fluorogenic HRP substrate (Quantablue, Pierce) was added to each well, and the reaction allowed to proceed for 30 minutes.

[12] = target: T1, human IL-17A; experiment: cell-based or functional assay
[13] = target: T7, human IL-23 (human, UniProt Q9NPF7 20-189; P29460 23-328); experiment: cell-based or functional assay
T7 sequence (looked up) 1: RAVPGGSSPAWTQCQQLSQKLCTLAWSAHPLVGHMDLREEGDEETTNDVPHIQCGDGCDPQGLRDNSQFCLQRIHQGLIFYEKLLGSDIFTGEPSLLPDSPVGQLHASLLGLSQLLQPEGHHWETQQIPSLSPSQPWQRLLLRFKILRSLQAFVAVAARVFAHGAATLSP
T7 sequence (looked up) 2: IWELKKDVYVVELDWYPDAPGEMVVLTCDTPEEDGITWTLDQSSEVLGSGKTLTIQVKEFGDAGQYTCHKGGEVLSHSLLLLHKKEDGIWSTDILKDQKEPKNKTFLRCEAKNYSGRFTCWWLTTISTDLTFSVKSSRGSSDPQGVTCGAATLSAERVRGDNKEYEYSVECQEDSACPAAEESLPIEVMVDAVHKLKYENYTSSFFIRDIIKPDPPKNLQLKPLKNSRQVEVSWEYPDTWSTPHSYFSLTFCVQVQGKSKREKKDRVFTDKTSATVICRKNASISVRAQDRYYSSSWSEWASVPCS

[14] = target: T1, human IL-17A; experiment: sandwich binding ELISA: hIL-17A coated, ABD fusion titrated, detection with biotinylated hIL-23; filing says the EC50 does not reflect binding affinity
[15] = target: T1, human IL-17A; experiment: cell-based or functional assay; remark: listed apart in the source
[16] = target: T5, human IL-17F; experiment: solution competition ELISA, 0.5 nM SEQ ID NO: 5, plate with biotinylated hIL-17A
Procedure: (§2) In the following detailed experimental protocol, incubation and washing steps were performed as described above in the competition ELISA protocol. A 384-well plate suitable for fluorescence measurements (Greiner FLUOTRAC™ 600, black flat bottom, high-binding) was coated with 20 μl of Neutravidin at a concentration of 5 μg/ml in PBS over night at 4° C. After washing, the Neutravidin-coated wells were blocked with 100 μl blocking buffer (PBS-T/BSA) for 1h at room temperature.

[17] = target: T6, mouse IL-17A; experiment: as above
Procedure: as §2

[18] = target: T3, human IL-6; experiment: as above
T3 sequence (P05231 30-212 limits assumed): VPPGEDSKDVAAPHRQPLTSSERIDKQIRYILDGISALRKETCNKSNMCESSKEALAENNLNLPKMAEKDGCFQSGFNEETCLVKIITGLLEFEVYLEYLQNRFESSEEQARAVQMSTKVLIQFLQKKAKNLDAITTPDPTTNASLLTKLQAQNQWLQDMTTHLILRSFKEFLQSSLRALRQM
Procedure: as §2

[19] = target: T1, human IL-17A; experiment: Surface Plasmon Resonance, legend of FIG. 6A (rounded value of the measurement of the example)
Procedure: (§3) Residual activated groups were quenched with ethanolamine.
(§4) The binding assay was carried out with a contact time of 300 s, dissociation time of 1200 s and applying a flow rate of 30 μL/min. All measurements were performed at 25° C. […] Prior to the protein measurements three startup cycles were performed for conditioning purposes. Data were evaluated with Biacore T200 Evaluation software (V 1.0). Double referencing was used. The 1:1 Binding model was used to fit the raw data.

[20] = target: T1, human IL-17A; experiment: SPR (Biacore T200), IL-17A amine-coupled to CM5 chip, mutein in solution, 25 C, 1:1 binding model
Procedure: as §3, §4

[21] = target: T1, human IL-17A; experiment: SPR (Biacore T200), hIL-17A immobilized on CM5 chip, mutein injected, fit 1:1 Binding
Procedure: as §3, §4

[22] = target: T1, human IL-17A; experiment: competition ELISA (ECL): 0.01 nM biotinylated hIL-17A pre-incubated with varied mutein, free hIL-17A captured on coated soluble hIL-17RA (competitor)
[23] = target: T1, human IL-17A; experiment: SPR in analogy to Example 1, hIL-17A immobilized, mutein injected, fit 1:1 Binding; remark: listed apart in the source
[24] = target: T1, human IL-17A; experiment: as above; remark: listed apart in the source
[25] = target: T7, human IL-23; experiment: competition ELISA (fluorescence), 1.6 nM hIL-23, captured hIL-23R-Fc
[26] = target: T1, human IL-17A; experiment: competition ELISA (ECL), biotinylated hIL-17A, coated soluble hIL-17RA

B1: lipocalin mutein SEQ ID NO: 4 (designed binder)
chain: ASDEEIQDVSGTWYLKAMTVDFWCSGIHEESVTPMTLTTLEGGNLEAKVTMDIRGFLQEFKAVLEKTDEPGKYTADGGKHVAYIIRSHVKDHYIFYSEGDCPDSPVPGVWLVGRDPKNNLEALEDFEKAAGARGLSTESILIPRQSETSSPG
notes: Human tear lipocalin mutein specific for IL-17A
- KD,app [1]: ~2 nM
- KD,app [2]: ~2 nM
- binding result [3]: no binding (tested: mutein up to 1000 nM)
- Kd [4]: 1.6 nM
- KD,app [5]: 2.4 nM
- KD,app [6]: 1.8 nM
- KD,app [7]: 2.6 nM
- koff [8]: 0.000625 s⁻¹
- kon [8]: 394000 M⁻¹ s⁻¹
- binding result [9]: binds
- binding result [10]: no binding (tested: 1000 nM)
- IC50 [11]: 0.2 nM

B2: ABD fusion (SEQ ID NO: 41) (designed binder)
chain: ASDEEIQDVSGTWYLKAMTVDFWCSGIHEESVTPMTLTTLEGGNLEAKVTMDIEGFLQEFKAVLEKTDEPGKYTADGGKHVAYIIRSHVKDHYIFYSEGDCPGPVPGVWLVGRDPKNNLEALEDFEKAAGARGLSTESILIPRQSETSSPGSGAGGGSGGGGSQDSTSDLIPAPPLSKVPLQQNFQDNQFHGKWYVVGEAGNLLLREDKDPRKMTATIYELKEDKSYNVTRVEFGVKTYKYQIGTFVPGSQPGEFTLGGIKSMPGMTSFLVRVVSTNYNQHAMVFFKYVYQNREYFEITLYGRTKELTSELKENFIRFSKSLGLPENHIVFPVPIDQAIDGSAGAVDANSLAEAKVLANRELDKYGVSDYYKNLINNAKTVEGVKALIDEILAALP
- IC50 (repeat experiment), hIL-17A-induced secretion of G-CSF in U87-MG cells [12]: 1.1 nM
- IC50, hIL-17A-induced secretion of G-CSF in U87-MG cells [12]: 1.2 nM
- IC50 (experiment of FIG. 19), hIL-23-induced proliferation of Ba/F3 cells expressing hIL-23R and hIL-12Rβ1 [13]: 0.42 nM
- IC50 (three independent experiments), hIL-23-induced proliferation of Ba/F3 cells expressing hIL-23R and hIL-12Rβ1 [13]: 0.38 nM
- EC50 [14]: 4 nM

B3: lipocalin mutein SEQ ID NO: 5 (designed binder)
chain: ASDEEIQDVSGTWYLKAMTVDFWCSGIHEESVTPMTLTTLEGGNLEAKVTMDIEGFLQEFKAVLEKTDEPGKYTADGGKHVAYIIRSHVKDHYIFYSEGDCPGPVPGVWLVGRDPKNNLEALEDFEKAAGARGLSTESILIPRQSETSSPG
notes: Human tear lipocalin (Tlc) mutein specific for IL-17A; also called Tlc mutein
- IC50, hIL-17A-induced secretion of G-CSF in U87-MG cells [12]: 1 nM and 1.2 nM and 2 nM
- EC50 [nM] AVERAGE, hIL-17A-induced secretion of G-CSF in U87-MG cells [15]: 0.7 nM
- EC50 [nM] Exp 1, hIL-17A-induced secretion of G-CSF in U87-MG cells [15]: 0.7 nM
- EC50 [nM] Exp 2, hIL-17A-induced secretion of G-CSF in U87-MG cells [15]: 0.7 nM
- binding result [16]: no binding (tested: ligand up to 1000 nM)
- binding result [17]: no binding (tested: ligand up to 1000 nM)
- binding result [18]: no binding (tested: ligand up to 1000 nM)
- Kd [19]: 1 nM
- koff [20]: 0.00032 s⁻¹
- kon [20]: 310000 M⁻¹ s⁻¹
- koff [21]: 0.000317 s⁻¹
- kon [21]: 311000 M⁻¹ s⁻¹
- IC50 [22]: 0.05 nM

B4: lipocalin mutein SEQ ID NO: 3 (designed binder)
chain: ASDEEIQDVSGTWYLKAMTVDFWCSGIHDESVTPMTLTTLEGGNLEAKVTMDIAGFLQEVKAVLEKTDEPGKYTADGGKHVAYIIRSHVKDHYIFYSEGDCPGPVPGVWLVGRDPKNNLEALEDFEKAAGARGLSTESILIPRQSETSSPG
notes: as for B1
- KD,app [1]: ~0.8 nM
- KD,app [2]: ~0.8 nM
- binding result [3]: no binding (tested: mutein up to 1000 nM)
- Kd [4]: 8.7 nM
- koff [4]: 0.00044 s⁻¹
- kon [4]: 50000 M⁻¹ s⁻¹
- KD,app [5]: 0.7 nM
- KD,app [6]: 0.8 nM
- KD,app [7]: 0.8 nM
- koff [23]: 0.000436 s⁻¹
- kon [23]: 50100 M⁻¹ s⁻¹
- binding result [9]: binds
- binding result [10]: no binding (tested: 1000 nM)
- IC50 [11]: 0.15 nM

B5: lipocalin mutein SEQ ID NO: 14 (designed binder)
chain: ASDEEIQDVSGTWYLKAMTVDYGCNHPSIWSVTPMTLTTLEGGNLEAKVTMYWEGSRQEDKAVLEKTDEPGKYTADGGKHVAYIIRSHVKDHYIFYSEGICEGAPVPGVWLVGRDPKNNLEALEDFEKAAGARGLSTESILIPRQSETSSPG
notes: as for B1
- binding result [3]: no binding (tested: mutein up to 1000 nM)
- Kd [4]: 600 nM
- koff [4]: 0.00065 s⁻¹
- kon [4]: 1100 M⁻¹ s⁻¹
- KD,app [5]: 4 nM
- KD,app [6]: 12.5 nM
- KD,app [7]: 35.1 nM
- koff [24]: 0.000645 s⁻¹
- binding result [9]: binds
- IC50 [11]: 33 nM

B6: Tlc mutein of SEQ ID NO: 7 (negative control) (designed binder)
chain: ASDEEIQDVSGTWYLKAMTVDRECPEMNLESVTPMTLTTLEGGNLEAKVTMLISGRSQEVKAVLEKTDEPGKYTADGGKHVAYIIRSHVKDHYIFYSEGECHGKPVPGVWLVGRDPKNNLEALEDFEKAAGARGLSTESILIPRQSETSSPG
notes: Tear lipocalin based negative control
- binding result [25]: no binding (tested: starting concentration 500 nM)
- binding result [26]: no binding (tested: starting concentration 1000 nM)
